From article PMC6919601, “Identification of Plasmodium dipeptidyl aminopeptidase allosteric inhibitors by high throughput screening” (PLoS ONE, 2019) come the findings set out here.

In all, about 110,000 compounds went through this assay and about 230 (0.21%) showed an effect of 50% or more. The list shows a part of the results.
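Also: 30 min substrate incubation versus DMSO and 10 µM JCP410 controls.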

DPAP1, sequence (Q8IIJ9 whole entry, looked up): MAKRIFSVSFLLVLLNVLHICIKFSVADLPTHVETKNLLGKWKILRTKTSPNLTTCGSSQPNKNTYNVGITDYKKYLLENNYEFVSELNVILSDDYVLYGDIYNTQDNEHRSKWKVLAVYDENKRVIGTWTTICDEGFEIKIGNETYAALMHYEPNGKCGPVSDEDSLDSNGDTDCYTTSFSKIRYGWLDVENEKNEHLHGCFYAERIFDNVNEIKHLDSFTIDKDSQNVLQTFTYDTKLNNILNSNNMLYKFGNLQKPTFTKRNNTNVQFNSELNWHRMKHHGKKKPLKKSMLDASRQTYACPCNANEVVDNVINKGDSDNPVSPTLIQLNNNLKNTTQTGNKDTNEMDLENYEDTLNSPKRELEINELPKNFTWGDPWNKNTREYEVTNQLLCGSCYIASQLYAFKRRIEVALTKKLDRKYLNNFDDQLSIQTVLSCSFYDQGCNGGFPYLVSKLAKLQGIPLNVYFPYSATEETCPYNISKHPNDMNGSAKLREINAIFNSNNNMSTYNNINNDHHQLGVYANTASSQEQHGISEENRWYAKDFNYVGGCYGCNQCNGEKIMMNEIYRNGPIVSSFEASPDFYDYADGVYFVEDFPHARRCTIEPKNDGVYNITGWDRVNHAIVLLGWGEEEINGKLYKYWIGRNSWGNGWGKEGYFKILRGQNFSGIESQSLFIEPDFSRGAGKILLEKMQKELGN

The assay addresses DPAP1 (Plasmodium falciparum, UniProt Q8IIJ9). Description: primary screen, percent inhibition; read by cleavage of a fluorogenic dipeptide substrate; higher = more effect of the substance. Details: species or system P. falciparum D10 trophozoite lysates; single well.
With `Nc1sc2c(c1C(=O)NCc1cccnc1)CCCCC2`, the “% Inhibition @ 10 uM” value is reported as -5.06%.

For the compound `CCOc1ccccc1CN1CCN(c2cccc(Cl)c2)CC1`, the “% Inhibition @ 10 uM” value is on record as -1.07%. To `N#CC1=C(N)Oc2nc(O)nc(O)c2C12C(=O)Nc1ccc(Br)cc12` (centres unmarked) belongs -0.216%. To `COc1ccc(C2C(C(C)=O)=C(O)C(=O)N2Cc2cccnc2)cc1OC` (centres unmarked) belongs -6.27%; to `Cc1ccc(C2C(=O)N(C3CCCCCC3)CC(=O)N2Cc2ccc3c(c2)OCO3)cc1` (centres unmarked), 2.79%; to `O=C(NCc1ccc(Cl)cc1)C1c2ccccc2Oc2ccccc21`, -3.14%. To `Cc1nc2c(-c3ccccc3)c(C)nn2c(C)c1CC(=O)O` belongs -1.03%. Take `Cc1ccc(CNC(=O)CCn2nc(C)c3c(C)n(-c4ccccc4)nc3c2=O)o1`: the “% Inhibition @ 10 uM” value is -8.55%. Under `NC(=O)CSc1nc2nccnc2c(=O)n1Cc1cccs1` stands 3.36%; under `CCOC(=O)C1=C(Cc2ccc(OC)cc2)C(=O)c2ccccc2C1=O`, 6.8%; under `COc1ccc(C(=O)N2CCN(C(c3ccccc3)c3ccccc3)CC2)cc1OC`, 2.43%. Take `COc1ccc(-c2nc(N)n(C(=O)Cc3ccccc3)n2)cc1`: the “% Inhibition @ 10 uM” value came out at 2.32%. Under `CCOc1ccc(C(=O)c2nc(O)c3ccccc3c2O)cc1` stands 5.32%. Under `Cc1ccc(NC(=O)CSc2nc(N)cc(N)n2)cc1` stands 5.53%; under `COc1cccc(/C=N/N=C(N)N)c1O`, 19.2%. Under `COc1ccc(C(=O)NCc2ccc(S(N)(=O)=O)cc2)c(OC)c1` stands 3.25%; under `CCN(CC)CC(O)COc1ccc(C2C3=C(CC(C)(C)CC3=O)OC3=C2C(=O)CC(C)(C)C3)cc1` (centres unmarked), 2.13%; under `COc1ccc(CCNC(=O)c2oc3ccc(C)cc3c2C)cc1OC`, -1.36%. Take `Cc1cc(C)nc(SCCn2c(N3CCN(C)CC3)nc3c2c(=O)n(C)c(=O)n3C)n1`: the “% Inhibition @ 10 uM” value is -2.71%. Under `CCc1ccc(OCCCC(=O)NCc2ccccc2)cc1` stands -4.63%; under `CCCC(=O)NCCc1nc2ccccc2n1C(C)C`, -1.29%.

With `COc1ccc(CNCc2cc(F)ccc2F)cc1`, the “% Inhibition @ 10 uM” value is listed as -7.39%.

On to `COc1nc(-c2ccc(C)cc2)nc2ccccc12`, for which the “% Inhibition @ 10 uM” value was -7.35%. Under `COc1cccc(C2=NOC(C(=O)N3C(C)CCCC3C)C2)c1OC` (centres unmarked) stands -11.8%. Under `O=C(Nc1ccc(-c2cn3cccnc3n2)cc1)c1ccccc1` stands -3.45%. Under `COc1ccc(C2=N/C(=C\c3ccc(OC)cc3OC)C(=O)O2)cc1` stands 1.11%. In the case of `CCN(CC)S(=O)(=O)N1CCC(C(=O)NC2CCCC2)CC1`, the “% Inhibition @ 10 uM” value was -0.519%.

With `CCOc1cc2ccccc2cc1C(=O)Nc1ccccn1`, the “% Inhibition @ 10 uM” value is on record as 3.47%. Consider `CCC(C)NC(=O)CSCc1nc(-c2ccc(OC)c(OC)c2)oc1C` (centres unmarked), for which the “% Inhibition @ 10 uM” value was -1.05%. Under `CCCCCC(C)NC(=O)C(CC)Oc1ccccc1` (centres unmarked) stands 1.13%; under `Oc1ccccc1-c1nc(O)c2c(n1)Oc1ccc(Cl)cc1C2`, 3.92%; under `Cc1ccc2nc(N(CCCN(C)C)C(=O)COc3ccc(Cl)cc3)sc2c1`, -10.8%.

For the compound `Cc1ccc2[nH]c3c(c2c1)CN(C)CC3`, the “% Inhibition @ 10 uM” value was 1.63%. Regarding `CS/C(=C\C(=O)c1cccs1)C(C)C(=O)c1cccs1` (centres unmarked), the “% Inhibition @ 10 uM” value came out at 7.02%. To `O=c1c2ccccc2nc(/C=C/c2cc(Br)ccc2O)n1CCCO` belongs -0.941%; to `CC1CN(Cc2cc(F)ccc2F)CC(C)O1` (centres unmarked), -1.75%; to `Cc1c(C(=O)NCc2cccnc2)oc2c1-c1nn(Cc3ccccc3Cl)cc1CC2`, -2.37%. Under `CCc1ccc(-c2cn3nc(N4CCC(C(=O)NCCOC)CC4)sc3n2)cc1` stands -3.34%; under `CN(CCc1ccccc1)CC(O)c1ccccc1` (centres unmarked), 1.57%. For the compound `CC(=O)NS(=O)(=O)c1cnccc1Sc1ccc(Cl)c(Cl)c1`, the “% Inhibition @ 10 uM” value is recorded as -1.59%.

As for `O=C(NCCCN1CCOCC1)c1cc(-c2ccccc2)nc2ccccc12`, the “% Inhibition @ 10 uM” value is -2.09%. Under `CCC1CCCCN1C(=O)C1C2CCC(O2)C1C(=O)O` (centres unmarked) stands -4.82%. Take `O=C(c1ccccc1)N1CC(COc2ccccc2)OC(c2cccc(O)c2)O1` (centres unmarked): the “% Inhibition @ 10 uM” value is given as -1.06%. Consider `CC(C)CNC(=O)c1ccc(Cl)cc1Cl`, for which the “% Inhibition @ 10 uM” value is on record as 1.38%. Regarding `COc1cc2c(cc1/C=C1\SC(=O)N(CCOc3ccc(F)cc3)C1=O)OCO2`, the “% Inhibition @ 10 uM” value was 0.316%. Consider `Cc1ccc(C)c(OCC(=O)N2CCN(c3ccccn3)CC2)c1`, for which the “% Inhibition @ 10 uM” value is -3.96%. Consider `CCCCn1c2nc3ccccc3nc2c2c(N)ncnc21`, for which the “% Inhibition @ 10 uM” value is given as -3.41%. On to `CC(C)CNS(=O)(=O)c1ccc(OCC(=O)Nc2ccc3c(c2)OCCO3)cc1`, for which the “% Inhibition @ 10 uM” value is recorded as -5.81%. For the compound `CCCC[C@H](NC(=O)[C@H](CC(C)C)NC(=O)OCc1ccccc1)C(=O)CC(=O)OCC`, the “% Inhibition @ 10 uM” value came to 0.174%. Under `Sc1nnc2n(CCOc3ccccc3)c3ccccc3n12` stands -2.29%. Under `CN(C)C(CNC(=O)NC1CCCCC1)c1cccnc1` (centres unmarked) stands -3.51%; under `COc1cc(C2C(C#N)=C(N)Oc3[nH]nc(-c4cccs4)c32)cc(OC)c1OC` (centres unmarked), -6.59%; under `COCCN1C(=O)c2[nH]nc(-c3ccccc3O)c2C1c1ccc(OCC(C)C)c(OC)c1` (centres unmarked), 0.155%. To `COc1cc(NC(=O)c2cc3nc(C(F)F)cc(C(F)F)n3n2)cc(OC)c1OC` belongs 0.389%; to `CCN(CC)C(=O)c1ccc(NC(=O)c2ccccn2)cc1`, -0.884%; to `CN1CCN(C(=O)c2cc(-c3ccc(O)cc3)on2)CC1`, 1.37%.

For `Cc1cccc(C(=O)Nc2cc(-c3ccccc3)no2)c1`, the “% Inhibition @ 10 uM” value is on record as -1.47%. To `CCOc1ccc(-c2cc(C(=O)O)c3cc(Br)ccc3n2)cc1` belongs 7%; to `CC(=O)OCC12COC(C)C(C1)C(C)=CC2C` (centres unmarked), 1.29%; to `CC(C)CC(C(=O)NCC#N)c1cccc(-c2ccc([N+](=O)[O-])cc2)c1` (centres unmarked), 0.173%.

Take `COCCCNc1nc2ccc(C)cc2n2cnnc12`: the “% Inhibition @ 10 uM” value is -2.42%. Consider `COCCNC(=O)c1ccc(CS(=O)(=O)c2ccccc2OC)o1`, for which the “% Inhibition @ 10 uM” value is on record as -3.09%. For the compound `Clc1ccc(OCc2nc(-c3ccccc3)no2)cc1`, the “% Inhibition @ 10 uM” value worked out at 1.96%. Under `O=C(NCc1cccc(CNC(=O)C2CCCC2)c1)C1CCCC1` stands -1.84%. Take `CCCCCCCCOc1ccc(/C=C(\C#N)c2nc(-c3ccccc3)cs2)cc1`: the “% Inhibition @ 10 uM” value turned out to be 1.41%. Under `Cc1cc(C)nc(SCC(=O)Nc2ccc(Cl)c(Cl)c2)n1` stands -5.85%; under `Cc1cccc(CCNC(=O)Cc2c(C(=O)O)[nH]c3ccccc23)c1`, 0.121%. To `CC1(c2ccccc2)CC(C)(C)N(C(=O)CN2C(=O)CCC2=O)c2ccccc21` (centres unmarked) belongs -5.13%; to `c1ccc(CNc2nc(N3CCOCC3)nc3ccccc23)cc1`, 4.74%; to `NS(=O)(=O)c1ccc(N2C(=O)C3C4c5ccccc5C(c5ccccc54)C3C2=O)cc1` (centres unmarked), -6.71%. Under `Cc1cc2oc(C(=O)Nc3sc4c(c3C(=O)NCc3cccnc3)CCCC4)cc(=O)c2cc1C` stands 1.9%; under `CSCCC(C#N)NC(=O)[C@H](CC(C)C)NC(=O)OCc1ccccc1` (some centres unmarked), 0.174%. For `CCNS(=O)(=O)c1cccnc1N1CCN(C(C)C)CC1`, the “% Inhibition @ 10 uM” value is -7.62%. To `NC(=O)c1ccc(C(N)=O)c(-c2ccccc2)c1` belongs -0.0369%; to `CCN(CC)C(=O)c1cc(-c2ccccc2O)on1`, -1.21%; to `Cc1ccc(NC(=O)c2c(-c3ccccc3)noc2C)c(C)c1`, -3.97%. Under `COc1cc(OC)cc(C(=O)Nc2cccc(NC(C)=O)c2)c1` stands -4.59%.

Consider `O=C(Cn1ncc2c3ccccc3nc-2c1O)NC1CCN(Cc2ccccc2)CC1`, for which the “% Inhibition @ 10 uM” value is recorded as -4.51%.

As for `COc1cc(SC#N)ccc1/N=C/c1c(C)nn(-c2cccc(Cl)c2)c1O`, the “% Inhibition @ 10 uM” value came to 5.31%. Under `C=CCC(CC=C)(NC(=O)c1cccc(C)c1)c1ccccc1` stands -1.84%.

With `CC1CC(C)CN(C(=O)c2cc3c(s2)-c2ccccc2S(=O)(=O)C3)C1` (centres unmarked), the “% Inhibition @ 10 uM” value was found to be 2.84%. As to `CCOc1ccccc1CNCc1c(C(=O)O)c(C)n(Cc2ccccc2F)c1C`, the “% Inhibition @ 10 uM” value turned out to be 1.41%. To `CC(=O)Nc1ccc(N2C(=O)c3cccc(NC(C)=O)c3C2=O)cc1` belongs 1.96%. `CCNC(=O)/C(C#N)=C/c1ccc(C(C)(C)C)cc1`: the “% Inhibition @ 10 uM” value came to 6.51%. Under `COc1cc(CN2CCCC(O)C2)cc2c1OCO2` (centres unmarked) stands 0.634%; under `COc1cccc(/C=c2\sc3nc(-c4ccc(C)cc4)nn3c2=O)c1OC`, -3.33%. To `COc1ccccc1CC(C)N[C@H]1CC[C@H](O)CC1` (some centres unmarked) belongs -1.81%; to `NS(=O)(=O)c1cccc(S(=O)(=O)c2ccc(Cl)c(Cl)c2)c1`, -3.27%. To `CC(=O)Nc1ccc(S(=O)(=O)Nc2sc3c(c2C(N)=O)CCCCCC3)cc1` belongs 1.25%; to `c1ccc(-c2cnc(N3CCOCC3)nc2)cc1`, 1.72%.

As for `Cc1ccccc1NCN1C(=O)C2CC=CCC2C1=O` (centres unmarked), the “% Inhibition @ 10 uM” value was -1.84%. Under `Cc1ccc(C2=NC(C)(C)NC2=S)cc1` stands 8.4%; under `CCCCOC(=O)c1ccc(NC(=O)c2ccco2)cc1`, -4.06%.

Regarding `CCCCN(CCCNC(=O)c1cc(O)nc2ccccc12)Cc1ccccc1`, the “% Inhibition @ 10 uM” value is listed as -1.34%. Regarding `CC1CCc2c(sc(NC(=O)c3ccco3)c2C(N)=O)C1` (centres unmarked), the “% Inhibition @ 10 uM” value is on record as -4.03%. Under `CC(NS(=O)(=O)c1ccc2c(c1)C(=O)c1ccccc1C2=O)c1ccccc1` (centres unmarked) stands 3.39%; under `O=c1cccc2n1C[C@H]1C[C@@H]2CN(Cc2cccc(Cl)c2Cl)C1`, -1.59%; under `Cc1ccccc1C(=O)NCC1CCCO1` (centres unmarked), -7.84%. Under `COc1ccc(C(=O)CSc2nc(O)cc(O)n2)cc1` stands 0.266%. To `Cc1c(Br)c(C(=O)Nc2sc3c(c2C(N)=O)CCC3)nn1C` belongs -3.03%. As to `CCOc1ccccc1N1CCN(C(=O)c2ccc(F)cc2)CC1`, the “% Inhibition @ 10 uM” value is listed as -3.72%.

For `CC(C)(C)Nc1c2ccccc2nc2ccccc12`, the “% Inhibition @ 10 uM” value is -2.9%.

Regarding `NC1=C([N+](=O)[O-])C(=O)c2ccccc21`, the “% Inhibition @ 10 uM” value is reported as -0.197%. Under `O=C(NCc1ccco1)C1CCCN(c2cnccn2)C1` (centres unmarked) stands 2.29%.
